Sequences and labels used below:
T1: RBFOX1 RRM (Homo sapiens, UniProt Q9NWB1 109-208)
T1 sequence: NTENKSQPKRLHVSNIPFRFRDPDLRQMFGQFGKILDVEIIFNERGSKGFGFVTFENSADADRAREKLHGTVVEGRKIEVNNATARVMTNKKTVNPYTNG

B1: GAAUAGG (DNA:RNA)
RNA: GGGAGACCGGAAUUCAGAUUGUCCGAAUAGGUUAAAUCCCGUCGUAGCCACCA
DNA 1: CAATCTGAATTCCGGTCTCCC
DNA 2: TGGTGGCTACGACGGGATT
B2: ACGUAAU (DNA:RNA)
RNA: B1 RNA with G25A, A26C, A27G, G30A, G31U
DNA 1: CAATCTGAATTCCGGTCTCCC
DNA 2: TGGTGGCTACGACGGGATT
B3: UCUGCUA (DNA:RNA)
RNA: GGGAGACCGGAAUUCAGAUUGUCCUCUGCUAUUAAAUCCCGUCGUAGCCACCA
DNA 1: CAATCTGAATTCCGGTCTCCC
DNA 2: TGGTGGCTACGACGGGATT
B4: GCGGUGG (DNA:RNA)
RNA: B1 RNA with A26C, A27G, U28G, A29U
DNA 1: CAATCTGAATTCCGGTCTCCC
DNA 2: TGGTGGCTACGACGGGATT
B5: CAAGCAC (DNA:RNA)
RNA: B1 RNA with G25C, U28G, A29C, G30A, G31C
DNA 1: CAATCTGAATTCCGGTCTCCC
DNA 2: TGGTGGCTACGACGGGATT
B6: UCCGACG (DNA:RNA)
RNA: B3 RNA with U27C, C29A, U30C, A31G
DNA 1: CAATCTGAATTCCGGTCTCCC
DNA 2: TGGTGGCTACGACGGGATT
B7: UAUAUAC (DNA:RNA)
RNA: B3 RNA with C26A, G28A, C29U, U30A, A31C
DNA 1: CAATCTGAATTCCGGTCTCCC
DNA 2: TGGTGGCTACGACGGGATT
B8: GCGAUCC (DNA:RNA)
RNA: B1 RNA with A26C, A27G, U28A, A29U, G30C, G31C
DNA 1: CAATCTGAATTCCGGTCTCCC
DNA 2: TGGTGGCTACGACGGGATT
B9: GUUUCGG (DNA:RNA)
RNA: B1 RNA with A26U, A27U, A29C
DNA 1: CAATCTGAATTCCGGTCTCCC
DNA 2: TGGTGGCTACGACGGGATT
B10: AUUAGUC (DNA:RNA)
RNA: B3 RNA with U25A, C26U, G28A, C29G, A31C
DNA 1: CAATCTGAATTCCGGTCTCCC
DNA 2: TGGTGGCTACGACGGGATT
B11: CGAGCCA (DNA:RNA)
RNA: B3 RNA with U25C, C26G, U27A, U30C
DNA 1: CAATCTGAATTCCGGTCTCCC
DNA 2: TGGTGGCTACGACGGGATT
B12: UGCUCCU (DNA:RNA)
RNA: B3 RNA with C26G, U27C, G28U, U30C, A31U
DNA 1: CAATCTGAATTCCGGTCTCCC
DNA 2: TGGTGGCTACGACGGGATT
B13: AAUAGAC (DNA:RNA)
RNA: B1 RNA with G25A, A27U, U28A, A29G, G30A, G31C
DNA 1: CAATCTGAATTCCGGTCTCCC
DNA 2: TGGTGGCTACGACGGGATT
B14: CGUGUUU (DNA:RNA)
RNA: B3 RNA with U25C, C26G, C29U, A31U
DNA 1: CAATCTGAATTCCGGTCTCCC
DNA 2: TGGTGGCTACGACGGGATT
B15: ACGAUAC (DNA:RNA)
RNA: B3 RNA with U25A, U27G, G28A, C29U, U30A, A31C
DNA 1: CAATCTGAATTCCGGTCTCCC
DNA 2: TGGTGGCTACGACGGGATT
B16: GCGAAAC (DNA:RNA)
RNA: B1 RNA with A26C, A27G, U28A, G30A, G31C
DNA 1: CAATCTGAATTCCGGTCTCCC
DNA 2: TGGTGGCTACGACGGGATT
B17: UAACCUA (DNA:RNA)
RNA: B3 RNA with C26A, U27A, G28C
DNA 1: CAATCTGAATTCCGGTCTCCC
DNA 2: TGGTGGCTACGACGGGATT
B18: UAUGGUA (DNA:RNA)
RNA: B3 RNA with C26A, C29G
DNA 1: CAATCTGAATTCCGGTCTCCC
DNA 2: TGGTGGCTACGACGGGATT
B19: AGCGAGU (DNA:RNA)
RNA: B1 RNA with G25A, A26G, A27C, U28G, G31U
DNA 1: CAATCTGAATTCCGGTCTCCC
DNA 2: TGGTGGCTACGACGGGATT
B20: UUUCACA (DNA:RNA)
RNA: B3 RNA with C26U, G28C, C29A, U30C
DNA 1: CAATCTGAATTCCGGTCTCCC
DNA 2: TGGTGGCTACGACGGGATT
B21: UUUUGCG (DNA:RNA)
RNA: B1 RNA with G25U, A26U, A27U, A29G, G30C
DNA 1: CAATCTGAATTCCGGTCTCCC
DNA 2: TGGTGGCTACGACGGGATT
B22: UCGGAGA (DNA:RNA)
RNA: B3 RNA with U27G, C29A, U30G
DNA 1: CAATCTGAATTCCGGTCTCCC
DNA 2: TGGTGGCTACGACGGGATT
B23: UUUGGAG (DNA:RNA)
RNA: B3 RNA with C26U, C29G, U30A, A31G
DNA 1: CAATCTGAATTCCGGTCTCCC
DNA 2: TGGTGGCTACGACGGGATT
B24: AGGCUGC (DNA:RNA)
RNA: B1 RNA with G25A, A26G, A27G, U28C, A29U, G31C
DNA 1: CAATCTGAATTCCGGTCTCCC
DNA 2: TGGTGGCTACGACGGGATT
B25: CGAGCAU (DNA:RNA)
RNA: B3 RNA with U25C, C26G, U27A, U30A, A31U
DNA 1: CAATCTGAATTCCGGTCTCCC
DNA 2: TGGTGGCTACGACGGGATT
B26: GCCCGCG (DNA:RNA)
RNA: B1 RNA with A26C, A27C, U28C, A29G, G30C
DNA 1: CAATCTGAATTCCGGTCTCCC
DNA 2: TGGTGGCTACGACGGGATT
B27: CAUUGUA (DNA:RNA)
RNA: B3 RNA with U25C, C26A, G28U, C29G
DNA 1: CAATCTGAATTCCGGTCTCCC
DNA 2: TGGTGGCTACGACGGGATT
B28: UCACGUC (DNA:RNA)
RNA: B3 RNA with U27A, G28C, C29G, A31C
DNA 1: CAATCTGAATTCCGGTCTCCC
DNA 2: TGGTGGCTACGACGGGATT
B29: ACGAGUU (DNA:RNA)
RNA: B3 RNA with U25A, U27G, G28A, C29G, A31U
DNA 1: CAATCTGAATTCCGGTCTCCC
DNA 2: TGGTGGCTACGACGGGATT
B30: GCAUUAA (DNA:RNA)
RNA: B1 RNA with A26C, A29U, G30A, G31A
DNA 1: CAATCTGAATTCCGGTCTCCC
DNA 2: TGGTGGCTACGACGGGATT
B31: CGGGUCG (DNA:RNA)
RNA: B1 RNA with G25C, A26G, A27G, U28G, A29U, G30C
DNA 1: CAATCTGAATTCCGGTCTCCC
DNA 2: TGGTGGCTACGACGGGATT

Residue numbers refer to the chain shown, from its start. Some of the results follow.

The target of this experiment is T1, RBFOX1 RRM. Kind of experiment: EMSA; HiTS-Eq, 1 nM pool, 10 min; buffer printed only for the single-RNA assays: 10 mM Tris pH 7.5, 150 mM NaCl, 3.4 mM EDTA, 0.001% NP-40, 30 C. The settings on record: tags: His6 N-terminal (pET28a); label: 5' 32P. A digest of the protocol:
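These values rest on relative association constants, computed from read-count changes of each RNA species versus the control reaction and normalised to the cognate motif. Reads came from free RNA recovered by 8% native PAGE after purified RbFox RRM (wild type or mutant) at increasing concentrations was equilibrated for 10 min in 50 µL with 1 nM of a 5′-radiolabelled pool with 7 randomized nucleotides and DNA-annealed flanks.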
(Mobility shift assays separate free from complexed probe on a gel.)
Regarding B1, the binding signal was 0.00781 KA relative to UGCAUGU.
For B2, the binding signal is 0.00194 KA relative to UGCAUGU.
With B3, the binding signal was 0.0183 KA relative to UGCAUGU.
Then B4, with 0.0218 KA relative to UGCAUGU; and B5, with 0.00463 KA relative to UGCAUGU; and B6, with 0.0114 KA relative to UGCAUGU.
As to B7, the binding signal is 0.00267 KA relative to UGCAUGU.
Regarding B8, the binding signal was 0.0139 KA relative to UGCAUGU.
For B9, the binding signal was 0.0087 KA relative to UGCAUGU.
As to B10, the binding signal is 0.0112 KA relative to UGCAUGU.
As to B11, the binding signal is 0.007 KA relative to UGCAUGU.
Take B12: the binding signal was 0.0145 KA relative to UGCAUGU.
Regarding B13, the binding signal was 0.00275 KA relative to UGCAUGU.
For the molecule B14, the binding signal was 0.015 KA relative to UGCAUGU.
For B15, the binding signal was 0.00336 KA relative to UGCAUGU.
Consider B16, for which the binding signal was 0.00995 KA relative to UGCAUGU.
As for B17, the binding signal is 0.000958 KA relative to UGCAUGU.
Turning to B18, the binding signal is 0.0122 KA relative to UGCAUGU.
In the case of B19, the binding signal is 0.015 KA relative to UGCAUGU.
With B20 the figure was 0.000705 KA relative to UGCAUGU.
With B21, the binding signal was 0.0222 KA relative to UGCAUGU.
With B22 the figure was 0.00763 KA relative to UGCAUGU.
Then B23, with 0.00451 KA relative to UGCAUGU; and B24, with 0.0167 KA relative to UGCAUGU; and B25, with 0.00976 KA relative to UGCAUGU.
With B26 the figure was 0.0199 KA relative to UGCAUGU; with B27, 0.00259 KA relative to UGCAUGU.
Consider B28, for which the binding signal was 0.00782 KA relative to UGCAUGU.
Consider B29, for which the binding signal was 0.00796 KA relative to UGCAUGU.
Then B30, with 0.00489 KA relative to UGCAUGU; and B31, with 0.0322 KA relative to UGCAUGU.

Source of the values: publication PMC9911399, “Two distinct binding modes provide the RNA-binding protein RbFox with extraordinary sequence specificity”.
